# Laboratory results as given in PubChem BioAssay AID463173 (ICCB-Longwood Screening Facility, Harvard Medical School, 2010).
# Out of some 52,000 compounds screened, about 1,700 (3.3%) were called active. Cut-off read from the data, not from the text of the source: active = survival mostly below about 52% (no sharp cut-off); inactive = mostly above about 56%. Some of the results follow.
# System: Wild type
# Experiment: growth inhibition of S. aureus wild type versus tarO mutant, primary screen, teichoic acid synthesis inhibitors, RN4220, OD600 (AID 463173)
# Details: S. aureus RN4220 wild type/DeltatarO growth, OD600, 18 h, hits give low values, screened at 18.75 µg/mL (by protocol)
row,Compound,survival
1,COc1ccc(OC)c(NC(=O)CCn2cnc3ccccc3c2=O)c1,inactive: 86%
2,N#Cc1ccccc1Cn1c(=O)n(Cc2ccc(C(=O)NC3CCN(Cc4ccccc4)CC3)cc2)c(=O)c2ccccc21,inactive: 100%
3,CC(OC(=O)c1cc2sccc2n1C)C(=O)NC1CCCC1 (centres undefined),inactive: 101%
4,O=C(Nc1c(C(=O)Nc2cccc(F)c2)oc2ccccc12)c1cc2ccccc2o1,inactive: 44%
5,Fc1ccc(-c2ccc(CNCCSc3nnnn3-c3ccccc3)o2)cc1Cl,inactive: 23%
6,COc1cc2[nH]c(=O)n(CCCCCC(=O)NCCc3ccccc3)c(=O)c2cc1OC,inactive: 75%
7,CCNC(=O)c1ccc2nc(Cc3ccccc3)oc2c1,inactive: 95%
8,CCOC(=O)c1c(NC(=O)COc2cccc(C(F)(F)F)c2)sc2c1CCCCC2,inactive: 72%
9,CC(C)COc1ccc(C(=O)N2CCN(CCc3ccccn3)CC2)cc1,inactive: 81%
10,COc1cccc(C2c3c(-c4ccccc4O)n[nH]c3C(=O)N2CCc2ccc(OC)c(OC)c2)c1 (centres undefined),inactive: 35%
11,O=C(CSc1ncc(CO)n1Cc1ccccc1)Nc1ccc(C(F)(F)F)cc1,inactive: 120%
12,O=C(Nc1nnc(S(=O)(=O)N2CCc3ccccc32)s1)c1ccccc1,inactive: 19%
13,CC(=O)Nc1ccccc1C#N,inactive: 115%
14,CCOc1nc(-c2ccc(C)cc2)ccc1-c1noc(-c2ccccc2F)n1,inactive: 59%
15,Cc1ccc(-c2nc3ccc(Cl)cn3c2Nc2ccc3c(c2)OCCO3)s1,inactive: 83%
16,COc1ccc(CNC(=O)CN2C(=O)CCCc3ccccc32)cc1,inactive: 82%
17,CCN(CC)S(=O)(=O)c1ccc2oc(C(=O)Nc3ccc(Br)cc3F)c(C)c2c1,inactive: 68%
18,COc1cc(NC(=O)c2cnc3c(-c4ccc(F)cc4)c(C)nn3c2C)cc(OC)c1,inactive: 124%
19,Cc1ccc(Sc2c(C(=O)NCc3ccccc3C)[nH]c3ccccc23)cc1,inactive: 88%
20,CCc1ccc(-c2nc(-c3cc4ccccc4oc3=O)sc2C)cc1,inactive: 148%
21,CCOc1ccc(CCNC(=O)Cn2ncn3c(cc4ccccc43)c2=O)cc1OCC,inactive: 80%
22,CCn1c(C(=O)Nc2cc(Cl)ccc2C)cc2sc(Cl)cc21,inactive: 82%
23,COc1ccc(CCNC(=O)CCc2c(C)c3cc4c(C)c(C)oc4cc3oc2=O)cc1,inactive: 111%

row,Compound,survival
1,COc1ccc(NC(=O)CC(C)n2nc(C)cc2C)cc1Cl (centres undefined),inactive: 68%
2,CCOC(=O)c1ccc(NS(=O)(=O)c2cc(Br)cc3c2N(C(C)=O)C(C)C3)cc1 (centres undefined),inactive: 83%
3,Cc1ccccc1NC(=O)C(NC1CCCCC1)C(C)C (centres undefined),inactive: 104%
4,CCN(CCCNC(=O)c1nn(-c2ccc(OC)c(Cl)c2)c(=O)c2c1c1ccccc1n2C)c1cccc(C)c1,inactive: 92%
5,Cc1cccc(-n2ccnc2SCC(=O)Nc2nc3ccccc3s2)c1,inactive: 92%
6,CCOC(=O)C(=O)Nc1c(C(=O)Nc2cccc(F)c2)oc2ccccc12,inactive: 123%
7,COc1ccccc1N1CCN(c2nc3c(S(=O)(=O)c4ccc(C)c(C)c4)nnn3c3ccc(Cl)cc23)CC1,inactive: 83%
8,Cc1cc(N2CCC(C(O)(c3ccccc3)c3ccccc3)CC2)nc(C)n1,inactive: 113%
9,Cc1cc2[nH]c(=O)c(=O)[nH]c2cc1S(=O)(=O)N1CCN(c2cccc(C)c2C)CC1,inactive: 128%
10,Cc1cccc(-c2nc(SCC(=O)NCc3ccco3)c3c(=O)n(C)c(=O)n(C)c3n2)c1,inactive: 81%
11,Cc1ccc(Cn2c(CNS(=O)(=O)c3ccc(Cl)s3)nc3cccnc32)cc1,inactive: 136%
12,CCc1c(C)sc(NC(=O)C2c3ccccc3Oc3ccccc32)c1C(=O)OC(C)C,inactive: 25%
13,COc1ccc(CNC(=O)c2cc(-c3ccc(C)c(C)c3)n[nH]2)cc1,inactive: 67%
14,CCc1ccccc1Nc1cc(C(=O)NC2CCC(C)CC2)c2ccccc2n1 (centres undefined),inactive: 90%
15,CCOC(=O)c1cccc(NC(=O)C2CCCN(c3nnc(C)c4c(C)n(-c5ccccc5)nc34)C2)c1 (centres undefined),inactive: 70%
16,O=C(Nc1cc(Cl)cc(Cl)c1)c1cc(S(=O)(=O)N2CCc3ccccc3C2)ccc1F,inactive: 73%
17,COc1ccc(OC)c(C2C(C(=O)Nc3ccccc3OC)=C(C)Nc3c(C(=O)Nc4ccc(F)cc4)cnn32)c1 (centres undefined),inactive: 131%
18,COc1ccc(C(=O)Nc2c(C(=O)c3ccccc3)oc3ccccc23)cc1,inactive: 75%
19,Cn1c(=O)c(=O)n(C)c2cc(N3CCOCC3)c(NS(=O)(=O)c3ccc(F)c(Cl)c3)cc21,inactive: 63%
20,Cc1ccc(-c2nnc3ccccc3c2C(=O)Nc2cccc(Cl)c2)cc1,inactive: 153%
21,COc1ccc(NC(=O)c2cc3cc(C)ccc3n2C)cc1,inactive: 86%
22,N#C/C(C(=O)c1ccccc1)=C1/Nc2ccccc2C1=O,inactive: 102%
23,CC(C)(C)OC(=O)N1CCC(c2c(C(=O)NCc3ccc4c(c3)OCO4)cnn2-c2ccccc2Cl)CC1,inactive: 75%

row,Compound,survival
1,O=C(O)CCCNc1ncnc2ccccc12,inactive: 91%
2,COc1ccc(C(=O)Nc2nnc(S(=O)(=O)N(CC(C)C)c3ccccc3)s2)cc1,inactive: 86%
3,O=C(O)CCOc1ccc2c(c1)OCCO2,inactive: 110%
4,Cc1ccc(Cl)cc1NC(=O)c1ccc2snnc2c1,inactive: 119%
5,COc1cc(NC(=O)NCCn2nnc3cc(S(=O)(=O)N(C)C)ccc32)cc(OC)c1,inactive: 57%
6,COc1ccc(NC(=O)c2ccc3c(c2)nnn3C2CCCC2)cc1Cl,inactive: 85%
7,Cc1ccc(Cn2c(C(=O)O)c(CNCc3cccs3)c3ccc(C)cc32)cc1,inactive: 63%
8,CC1=C(C(N)=O)C(c2ccc(F)cc2)n2nc(-c3ccc(N(C)C)cc3)nc2N1 (centres undefined),inactive: 79%
9,CCN(C(=O)c1cc(S(=O)(=O)N2CCc3ccccc32)cn1C)c1cccc(C)c1,inactive: 94%
10,CNS(=O)(=O)c1cn(CC(=O)Nc2ccc(C)c(N(C)C)c2)cc1S(=O)(=O)NC,inactive: 82%
11,CC(=O)Nc1ccc(NC2OC(=O)c3ccccc32)cc1 (centres undefined),inactive: 113%
12,Cc1ccc(-c2nn(CC(=O)NC3CCCCC3)c3c2cnc2ccccc23)cc1,inactive: 75%
13,Cc1ccc2c(=O)c(C(=O)c3ccc(F)cc3)cn(CC(=O)NCc3ccccc3Cl)c2n1,inactive: 97%
14,Cc1ccc(Cl)cc1N1CCN(C(=O)c2cccn2-c2nnc(N3CCCC3)s2)CC1,inactive: 78%
15,CCn1ccc2cc(S(=O)(=O)N3CCCN(C(=O)Nc4ccc(C)c(F)c4)CC3)ccc21,inactive: 89%
16,CCCc1ccc(OCC(=O)Nc2sc3c(c2C(=O)OC)CCCCC3)cc1,inactive: 43%
17,CC(C)CC(=O)NCC1(N(C)C)CCCCC1,inactive: 87%
18,CCCCOc1ccccc1C(=O)Nc1nonc1-c1ccccc1,inactive: 108%
19,Cc1cccc(N(C)c2nc3ccc(C)cc3n3cnnc23)c1,inactive: 76%
20,Cc1ccc(CNC(=O)CCCN2C(=O)c3cccnc3Oc3ccc(Cl)cc32)cc1,inactive: 125%
21,Cc1nc(-c2ccccc2)sc1CCNC(=O)C(=O)Nc1ccc2c(c1)OCCO2,inactive: 63%
22,CCOc1ccc(NC(=O)c2cc3c(s2)-c2ccccc2OC3)cc1,inactive: 100%
23,OC(C#CCN1CCCC1)(c1ccccc1)C1CCCC1 (centres undefined),inactive: 104%

row,Compound,survival
1,Cc1cccc(NC(=O)C(Cc2ccccc2)n2cccc2)c1C (centres undefined),inactive: 84%
2,Nc1nc2ccc(C(=O)O)cc2s1,inactive: 102%
3,COc1cc(OC)c(NC(=O)N2CCc3c(sc4c3CCCC4)C2c2ccccc2)cc1Cl (centres undefined),inactive: 69%
4,CC(C(=O)N1CCCC1)N1CCN(c2ccc(F)cc2)CC1 (centres undefined),inactive: 95%
5,O=C(Nc1nnc(S(=O)(=O)N2CCCCCC2)s1)c1ccccc1Cl,inactive: 41%
6,COc1ccccc1Cc1nc2ccccc2nc1SCC(=O)N1CCc2ccccc21,inactive: 49%
7,COc1ccccc1N1CCN(c2ccc(-c3nc(-c4ccccc4C)no3)cc2[N+](=O)[O-])CC1,inactive: 84%
8,Cc1cccc(-c2nc(CSCC(=O)N3CCN(c4ccccc4)CC3)c(C)o2)c1,active: 18%
9,FC(F)(F)c1cccc(-c2nnn3c2nc(NC2CCCCC2)c2ccccc23)c1,inactive: 28%
10,Cc1cccc(N2CCN(C(=O)Cn3cnc4sc(C)c(S(=O)(=O)N5CCN(c6ncccn6)CC5)c4c3=O)CC2C)c1 (centres undefined),inactive: 71%
11,CCC(C)NC(=O)C1CCN(C(=O)c2ccc(-n3ccc4ccccc43)s2)CC1 (centres undefined),inactive: 55%
12,COc1ccccc1CCNC(=O)Cc1c(C)c2c(cc(C)c3c(C)c(C)oc32)oc1=O,inactive: 85%
13,CCOC(=O)c1ccc(NC(=O)CSc2nccn2-c2ccc(OCC)cc2)cc1,inactive: 81%
14,COc1ccc(NC(=O)C(C)n2nnc3sc(-c4ccccc4)cc3c2=O)cc1Cl (centres undefined),inactive: 75%
15,COc1cc([N+](=O)[O-])ccc1NC(=O)N1CCN(c2cc(-c3noc(C)n3)ccc2C)CC1,inactive: 78%
16,CCOc1ccccc1CNC(=O)C1CCN(S(=O)(=O)c2c(C)noc2/C=C/c2ccc(C)cc2)CC1,inactive: 120%
17,COc1cccc(NC(=O)C(=O)NCCc2csc(-c3ccc(C(F)(F)F)cc3)n2)c1,inactive: 87%
18,CCOc1ccc(CCNC(=O)c2cc(=O)[nH]c3ccc(S(=O)(=O)N4CCCCC4)cc23)cc1OCC,inactive: 89%
19,CCOC(=O)c1cccc(NC(=O)N2CCC(CN3CCc4ccccc4C3)CC2)c1,inactive: 71%
20,Cc1ccccc1OCC(=O)Nc1ccc(OCc2cc(=O)n3ccsc3n2)cc1,inactive: 92%
